The structures appear in SMILES notation. Hit rate of the full screen: of about 150,000 compounds, about 540 (0.36%) showed an effect of 50% or more. The list shows a part of the results.

For the experiment, the system named is Plasmodium falciparum. In words: Primary screen in NF54 nanoGlo assay, in single point, at 2uM, 72h; a lower Z score goes with more inhibition. Format: functional, Erythrocyte. Conditions: timepoint 72 hour.
In general, % Inhibition refers to the relative decrease from the control value, in per cent. For `C[C@H]1CCCCN1Cc1ncnn1-c1cc(S(N)(=O)=O)ccc1F`, the “% Inhibition” value was -1% and the Z score is 0.23.
Regarding `O=C(Cc1cccs1)N1CC[C@H](Oc2ncc(F)cn2)C1`, the “% Inhibition” value was -13% and the Z score is recorded as 2.02.
In the same order, the values of `Cc1noc(C)c1CCC(=O)N1CCC[C@H](c2cc3n(n2)CCCN(C)C3=O)C1` are -6% and 1.16.
The corresponding values for `Cc1cccc(CNC(=O)[C@H](C)Oc2ccc(=O)n(-c3cc(Cl)ccc3C)n2)c1` are -13% and 2.01.
Consider `O=C(c1ccco1)N1CCC(n2ccnc2-c2ccccn2)CC1`, for which the “% Inhibition” value was -8% and the Z score came out at 0.82.
In the same order, the values of `Cc1nc(N2CCN(C)CC2)ncc1-c1cc(=O)[nH]c(N2CCN(c3ccccc3)CC2)n1` are -8% and 1.16.
In the same order, the values of `CCc1c(C)nn(CC(=O)Nc2ccc(OC)c3nonc23)c1C` are 0% and -0.01.
In the same order, the values of `CC(Cn1cccn1)NC(=O)C1CC1c1ccc(Br)cc1` (stereo not given) are -1% and 0.08.
`O=C(NCC(F)(F)F)Nc1ccccc1N1CC2CCC1C2` (stereo not given): the “% Inhibition” value is given as -3% and the Z score amounted to 0.59.
The corresponding values for `O=C(CCS(=O)(=O)c1ccccc1)N1CCC(c2nnc(-c3ccc(F)cc3)o2)CC1` are 14% and -1.9.
The corresponding values for `Cc1ccc(S(=O)(=O)c2c(C)c(C)n(CC(C)C)c2NC(=O)c2ccccc2F)cc1` are -10% and 1.91.
The corresponding values for `Cc1cc2c(cc1NC(=O)NC1CCCC1)N(C)S(=O)(=O)N2C` are -5% and 0.54.
Regarding `CC(C)=CCN1C[C@@H]2CC[C@H]1CN(C(=O)c1ccc3[nH]c(C)c(C)c3c1)C2`, the “% Inhibition” value was 2% and the Z score was -0.34.
Consider `Cc1sc(NS(=O)(=O)c2ccccc2)nc1C(=O)N1CCN(S(C)(=O)=O)CC1`, for which the “% Inhibition” value is -13% and the Z score stood at 1.88.
`c1cc2c(cc1CC1CCNCC1)OCCO2`: the “% Inhibition” value came out at 6% and the Z score is -0.84.
In the same order, the values of `Clc1ccc(OCc2nc3ccccc3s2)c(C2CCCCC2)c1` are -11% and 1.43.
For the compound `O=C(c1cscn1)N1CCO[C@H]2CCC[C@H]21`, the “% Inhibition” value is listed as 27% and the Z score is -3.84.
`CC[C@]1(O)CCCN(c2nc(C)c(C)cc2C(N)=O)C1`: the “% Inhibition” value is given as -11% and the Z score is given as 1.42.
In the case of `Cc1sc2nc(CN3CCC(C)CC3)nc(N3CCC(N(C)C(C)C)CC3)c2c1C`, the “% Inhibition” value is -3% and the Z score is recorded as 0.66.
In the same order, the values of `O=C(N[C@H](c1ccccc1)C(F)F)N1CCC2(C=Cc3ccccc3O2)CC1` are -7% and 0.81.
For `c1cnc(N2CCC(c3nnc4n3CCCC4)CC2)nc1`, the “% Inhibition” value was -6% and the Z score is 0.99.
Regarding `CCc1nnsc1C(=O)Nc1cccc(S(=O)(=O)N2CCCCC2)c1`, the “% Inhibition” value turned out to be 7% and the Z score is -1.32.
In the same order, the values of `COc1cc2c(cc1OC)CN(C(=O)C1CC1C)CC2` (stereo not given) are -4% and 0.46.
On to `CC(NC1C=CCCCCC1)c1cnn(C)c1` (stereo not given), for which the “% Inhibition” value is -3% and the Z score stood at 0.3.
In the same order, the values of `Cc1cc(C)n(-c2ccc(CC(=O)NCC3CCCCC3)cc2)n1` are -18% and 2.77.
In the same order, the values of `CC(C)(C(=O)Cn1cnc2c(-c3ccccc3)nsc2c1=O)c1ccccc1` are -1% and 0.1.
As for `O=C(c1ccc2nccnc2c1)N1CC[C@H](n2ccnn2)C1`, the “% Inhibition” value was -11% and the Z score was 1.42.
For the compound `c1ccc(C(c2ccccc2)n2c(-c3nc4ccccc4o3)nc3ccccc32)cc1`, the “% Inhibition” value is -1% and the Z score is 0.21.
In the same order, the values of `CC1(C)CC(Nc2ncnc3ccc(F)cc23)CC(C)(C)N1` are -1% and 0.17.
With `C#CCN(CCCCC#N)Cc1cccc(C)n1`, the “% Inhibition” value is reported as -11% and the Z score is given as 1.57.
As to `CNC(=O)c1ccc(NC2CC3CC3C2)nn1` (stereo not given), the “% Inhibition” value is given as 6% and the Z score is -0.99.
The corresponding values for `Cc1n[nH]c(C)c1CCCN(C)C(=O)c1cn2cccnc2n1` are 4% and -0.72.
In the same order, the values of `COCc1cc(O)nc(N2CC[C@H](NC(=O)OCCF)C2)n1` are -10% and 1.3.
In the same order, the values of `CCN(CC(=O)Nc1ccc(NC(C)=O)cc1)C(=O)c1ccc2c(c1)C(=O)N(c1ccccc1Cl)C2=O` are 7% and -1.25.
Turning to `Cc1c[nH]c(C(=O)N(C)C[C@H](C)N2CCOCC2)n1`, the “% Inhibition” value is given as -16% and the Z score was 2.07.
Turning to `Fc1ccc(-c2nn(Cn3cc(Cl)cn3)c(-c3ccc(F)cc3)c2Cl)cc1`, the “% Inhibition” value worked out at 29% and the Z score is on record as -3.28.
In the same order, the values of `O=C(c1cc2c(s1)CCCC2)N1CCS(=O)(=O)CC1` are -6% and 0.63.
The corresponding values for `CCN(CC(N)=O)C(=O)c1sccc1C` are -10% and 1.73.
The corresponding values for `COc1cccc2ncn([C@@H](C)CN3CCCC3)c(=O)c12` are 6% and -0.76.
On to `CCc1nc(C)sc1C(=O)N1CCC2(CC1)C(=O)NC(=O)N2CC`, for which the “% Inhibition” value is reported as -3% and the Z score is recorded as 0.49.
In the same order, the values of `Cc1cc2ncc3c(n2n1)CCN(C(=O)c1cccn(C)c1=O)C3` are -8% and 1.28.
With `Cc1ccc(=O)n(Cc2ncnn2CCc2ccccc2)n1`, the “% Inhibition” value stood at 1% and the Z score is recorded as -0.07.
Turning to `COCCCNc1c(-c2cccc(F)c2)nc2sc(C(=O)N3CCN(C)CC3)c(C)n12`, the “% Inhibition” value was -8% and the Z score is on record as 1.43.
Regarding `O=C(O)C1CCC(NCC2(c3cccc(Cl)c3)CCCCC2)CC1` (stereo not given), the “% Inhibition” value was -5% and the Z score was found to be 0.64.
Turning to `CCN1CCC[C@@H]1CNC(=O)c1cccc(-c2cc(F)ccc2C(C)=O)c1`, the “% Inhibition” value is -6% and the Z score is reported as 0.9.
On to `CCOc1cc(CN(Cc2ccccc2C)[C@@H](C)COC)ccc1OCCn1ccnc1`, for which the “% Inhibition” value is on record as 0% and the Z score is on record as -0.03.
In the same order, the values of `C[C@@H](CO)N(C)S(=O)(=O)[C@H]1C[C@@H]1c1ccc(Br)cc1` are 1% and -0.19.
The corresponding values for `O=C(Nc1ccc(OCc2ccccc2)cc1)c1ncn(C[C@H](O)c2ccc(F)cc2)n1` are -7% and 0.76.
The corresponding values for `CC(=O)NCC(=O)NC1(C(=O)NC2CCCC2)CCCCC1` are 1% and -0.18.
As for `CCN1CCc2ncnc(N3CCCN(C)CC3)c2C1`, the “% Inhibition” value is 3% and the Z score is -0.42.
Regarding `CCn1nc(CNC(=O)[C@]2(C)CCCO2)c2ccccc21`, the “% Inhibition” value is reported as -15% and the Z score came to 1.92.
The corresponding values for `O=C(Cc1cc(F)c(F)cc1F)Nc1nc(C2CC2)n[nH]1` are -10% and 1.08.
The corresponding values for `Cc1cc(C)cc(NC(=O)C2CCN(S(=O)(=O)c3cc(-c4noc(C)n4)ccc3Cl)CC2)c1` are -10% and 1.34.
In the same order, the values of `CC(C)(C)c1ccc(C2=Nc3ccc(F)cc3C(c3ccccc3)=NN2)cc1` are -26% and 3.04.
For the compound `Cc1n[nH]c(CN2CCC(OCc3cccnc3)CC2)c1Cl`, the “% Inhibition” value is reported as -10% and the Z score is recorded as 1.45.
In the same order, the values of `COc1ccc(-c2noc(-c3cc(=O)[nH]c(C4CC4)n3)n2)cc1` are -8% and 1.
For `CCCN(C)C(=O)C1CCCC(F)C1` (stereo not given), the “% Inhibition” value is 0% and the Z score amounted to 0.05.
Consider `CC1CCN(C(=O)c2cc3oc(-c4ccc(F)cc4)cc3n2Cc2ccccc2)CC1`, for which the “% Inhibition” value is recorded as -1% and the Z score was determined as 0.15.
In the same order, the values of `CS(=O)(=O)N(CC(=O)N1CCCCCC1)c1ccc(OCc2ccccc2)cc1` are -4% and 0.4.
Take `CCOc1ccc(-c2nc(C3CC3)n[nH]2)o1`: the “% Inhibition” value is recorded as -2% and the Z score is on record as 0.22.
In the same order, the values of `COc1ccc(CCNC(=O)c2cc(C)nc(C)n2)cc1` are 3% and -0.49.
The corresponding values for `NC(=O)CN(CCC1CCCCC1)C(=O)c1ccccn1` are 5% and -0.78.
As to `CCC(NC(=O)c1cc(=O)cc(C)n1C)[C@H]1C[C@H](O)C1` (stereo not given in full), the “% Inhibition” value is listed as -12% and the Z score amounted to 1.51.
As to `CCCN1CCC(N2C[C@@H]3OC(=O)N(CCc4cccc(Cl)c4)[C@@H]3C2)CC1`, the “% Inhibition” value is -17% and the Z score turned out to be 1.6.
In the same order, the values of `Cc1ccc(NC(=O)C(F)F)c(Cl)c1` are 1% and -0.18.
In the same order, the values of `COc1cccc(F)c1C(=O)Nc1ccccc1N1C(=O)N[C@@H](C)C1=O` are -7% and 1.03.
With `COc1ccccc1C(=O)NC(=O)COC(=O)Cc1ccc(Cl)cc1`, the “% Inhibition” value was -1% and the Z score was 0.24.
In the same order, the values of `c1ccc(-c2nc(CN3CCc4ccccc4C3)cs2)cc1` are -1% and 0.12.
The corresponding values for `COc1ccccc1O[C@H]1CCCN(C(=O)c2ccc3[nH]c(=O)n(C)c3c2)C1` are 7% and -0.86.
The corresponding values for `O=C1[C@H]2[C@@H](C(=O)N1c1ccc(Br)cc1)[C@]1(C(=O)Nc3ccc(F)cc31)N1CCC[C@@H]21` are -7% and 1.14.
In the case of `CNC(=O)[C@H]1CCN(C(=O)c2cn(C)nc2C2CC2)C1`, the “% Inhibition” value is on record as -3% and the Z score is given as 0.47.
The corresponding values for `Cc1noc(CNC(=O)C2CCN(C(=O)c3ccco3)CC2)n1` are -10% and 1.48.
The corresponding values for `Cc1cc(C(=O)N2CCCCCC2)c2c(C)nn(-c3ccccc3Cl)c2n1` are -6% and 0.82.
In the same order, the values of `Cc1cc(C)nc(NS(=O)(=O)c2cc3c(cc2C)OCO3)n1` are -14% and 2.53.
With `O=C(NC1CCCc2sc(Cl)cc21)C1CCc2[nH]ncc2C1` (stereo not given), the “% Inhibition” value was 1% and the Z score was -0.22.
In the same order, the values of `Cc1ccc(OCC[C@H]2CCN(C(=O)c3cc(C)n(C)n3)C2)cc1` are -19% and 3.58.
As to `CC1CC1C(=O)NCCN1CCOCC1` (stereo not given), the “% Inhibition” value is -17% and the Z score is listed as 1.57.
In the same order, the values of `CCNC(=O)c1ccc2c(=O)n3c(nc2c1)CCCC3` are -1% and 0.21.
In the same order, the values of `NC(=O)c1coc(CNC(=O)C2(c3cccnc3)CCCC2)n1` are 2% and -0.17.
The corresponding values for `Cc1ccc(C(=O)Nc2ncnc3sccc23)cc1` are -26% and 3.29.
Consider `C=CCC[C@@H](CO)NC(=O)c1ccn(C(C)C)n1`, for which the “% Inhibition” value is recorded as -36% and the Z score was 4.2.
The corresponding values for `O=C(c1cn(C(c2ccccc2)c2ccccc2)nn1)N1CCCCCCC1` are -2% and 0.39.
The corresponding values for `CCc1ccc(C(=O)NCCn2nnc3cc(S(=O)(=O)NC(C)C)ccc32)cc1` are -11% and 1.3.
In the same order, the values of `COc1ccccc1/C=C/c1nc(-c2ccc(=O)n(C)c2)no1` are -10% and 1.57.
As for `O=C1[C@H]2C(Cc3c[nH]c4ccccc34)N[C@@]3(C(=O)Nc4ccc(Br)cc43)[C@H]2C(=O)N1CC1CCCO1` (stereo not given in full), the “% Inhibition” value was determined as 0% and the Z score is given as -0.06.

The values above are taken from ChEMBL document CHEMBL4888484, “Replenishing the malaria drug discovery pipeline: Screening and hit evaluation of the MMV Hit Generation Library 1 (HGL1) against asexual blood stage Plasmodium falciparum ,using a nano luciferase reporter read-out” (2022).
